# In all, about 110,000 compounds were measured (“z-score”: median about -0.1, highest 2% from about 2 on). The list shows a part of the results. Active and inactive are the calls of the source.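 How the source made its calls: active means z-score in the third read window above 3 or below -3; inactive means the rest.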
# Molecular target: Metabotropic glutamate receptor 8 (Rattus norvegicus) (UniProt P70579)
# Assay: mGluR8 Gi/Go-coupled signaling modulation – cell-based, rat, thallium flux, HTS, primary screen (AID 488969)
# Details: HEK293 rat mGluR8, GIRK (G protein-gated inwardly rectifying potassium channel) thallium flux, FluoZin2; at 10 µM; stronger effect = higher value
# Chain of UniProt P70579 (P70579 whole entry, looked up): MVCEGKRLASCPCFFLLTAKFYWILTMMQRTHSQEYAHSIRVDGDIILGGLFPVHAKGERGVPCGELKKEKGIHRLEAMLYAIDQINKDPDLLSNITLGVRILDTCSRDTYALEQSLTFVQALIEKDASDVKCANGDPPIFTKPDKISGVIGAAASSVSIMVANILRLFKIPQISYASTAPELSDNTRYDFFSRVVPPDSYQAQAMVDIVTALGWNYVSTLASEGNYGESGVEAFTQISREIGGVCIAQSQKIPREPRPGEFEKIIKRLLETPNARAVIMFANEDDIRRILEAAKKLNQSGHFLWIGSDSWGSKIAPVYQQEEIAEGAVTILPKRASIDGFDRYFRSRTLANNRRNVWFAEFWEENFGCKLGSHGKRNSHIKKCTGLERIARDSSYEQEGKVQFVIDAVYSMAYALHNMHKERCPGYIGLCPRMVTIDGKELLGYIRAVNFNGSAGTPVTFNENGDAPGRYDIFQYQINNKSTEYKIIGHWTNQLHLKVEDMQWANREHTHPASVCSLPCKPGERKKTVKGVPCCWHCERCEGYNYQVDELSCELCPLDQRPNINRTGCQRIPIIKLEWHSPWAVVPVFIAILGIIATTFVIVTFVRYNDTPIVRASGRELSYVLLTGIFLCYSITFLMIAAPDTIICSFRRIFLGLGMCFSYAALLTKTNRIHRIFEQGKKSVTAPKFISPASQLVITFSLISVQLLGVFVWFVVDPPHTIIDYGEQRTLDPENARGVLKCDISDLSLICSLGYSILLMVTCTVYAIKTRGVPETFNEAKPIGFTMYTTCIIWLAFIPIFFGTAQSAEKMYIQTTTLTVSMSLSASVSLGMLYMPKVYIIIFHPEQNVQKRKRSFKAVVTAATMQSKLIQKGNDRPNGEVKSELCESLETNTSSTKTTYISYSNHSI
row,Compound,z-score
1,CCC(C)n1c(O)c(/C=N/N2CCOCC2)c(=O)[nH]c1=S (stereo unspecified),-0.197
2,O=C(COc1ccc(Cl)cc1)NC1CN2CCC1CC2 (stereo unspecified),-0.215
3,Cc1cccc(C(O)(C(=O)NNC(=O)CN2CCN(C)CC2)c2cccc(C)c2)c1,-0.488
4,CCC(=O)c1c(O)n(C2CCCCCC2)c(=O)[nH]c1=O,-0.283
5,C=CCN1C(=O)/C(=C/c2cc(C)n(-c3ccccn3)c2C)C(=O)NC1=S,-0.369
6,COc1cccc(CN2CCN(C(=O)COc3ccc4ccccc4c3)CC2)c1,-0.244
7,COc1ccc(C2=NCc3nnc(C)n3-c3ccc(Cl)cc32)cc1Cl,0.0544
8,CCCCCCN=C(C)c1c(O)n(Cc2ccccc2)c(=O)[nH]c1=O,-0.194
9,CCN1CC2(COC(=O)c3ccccc3N)CCC(OC)C34C5CC6C(OC)CC(O)(C5C6OC)C(O)(C(OC)C23)C14 (stereo unspecified),-0.147
10,Cc1ccc(-n2c(-c3cccs3)nc3ccccc3c2=O)cc1,0.454
11,Cc1cc(NC(=O)COC(=O)c2c(C)nn(Cc3ccccc3Cl)c2C)no1,-0.163
12,Cn1c(O)c(C=NCc2ccco2)c(=O)n(C)c1=O,-0.19
13,Cc1ccnc(-n2c(-c3ccccc3)nc3ccccc3c2=O)c1,-0.155
14,O=C(c1cc2ccccn2n1)N1CCC2(CC1)OCCO2,active: 4
15,CC(C)OC(=O)c1c(N)n(Cc2ccco2)c2nc3ccccc3nc12,-2.62
16,Cc1nn(Cc2ccccc2Cl)c(C)c1C(=O)OCC(=O)NC1CCCC(C)C1C (stereo unspecified),-0.319
17,Cc1ccc2c(c1)C1CN(C)CCC1N2C(=O)Cn1nnc(-c2ccccc2F)n1 (stereo unspecified),-1.09
18,COc1ccc(CC2C(=O)NC(=O)N(c3ccccc3)C2=O)c(OC)c1 (stereo unspecified),0.821
19,CN1CCN(c2cc(N3CCCCCC3)c(F)cc2[N+](=O)[O-])CC1,1.51

row,Compound,z-score
1,COc1ccc(/C=C2/C(=O)NC(=O)N(C3CCCCC3)C2=O)cc1CSc1ccccn1,-0.105
2,Cc1c(C=C2C(=O)N(C)C(=O)N(C)C2=O)c(=O)n(-c2ccccc2)n1C,0.52
3,COc1ccc(CCn2c(O)c(C=NCCCn3ccnc3)c(=O)[nH]c2=O)cc1OC,0.744
4,NP(=O)(OCC(F)(F)F)Oc1ccc(Cl)cc1 (stereo unspecified),0.0279
5,NCCc1ccc(O)cc1,0.452
6,CCCS(=O)(=O)N1CCC(C(=O)N2CCC3(CC2)OCCO3)CC1,0.119
7,CN1C(=O)C(=Cc2ccccc2Oc2ccc(Cl)cc2)C(=O)N(C)C1=O,-0.0352
8,COc1cccc(/C=C2\N=C(c3cncc(Br)c3)OC2=O)c1,-0.277
9,Cc1cccc(CN2CCN(CC(=O)N3CCC4(CC3)OCCO4)C2=O)c1,0.321
10,Cn1cccc1CNCCc1ccccc1,active: 6.88
11,CC(C)N(CC(O)c1cccc([N+](=O)[O-])c1)C(C)C (stereo unspecified),-0.309
12,COc1ccccc1N1C(=O)NC(=O)C2(Cc3cc(C)ccc3N(C)C2)C1=O (stereo unspecified),-0.25
13,Cc1ccccc1-n1c(-c2ccco2)nc2ccccc2c1=O,0.0349
14,O=c1c2ccccc2nc(CSc2ncnc3nc[nH]c23)n1-c1ccccc1,0.961
15,O=C(Nc1ccc(Cl)cc1)Nc1nccs1,active: 8.34
16,Cc1nn(-c2ccccc2)c2c1CC1(C(=O)N(C)C(=O)N(C)C1=O)C1CCCCN21 (stereo unspecified),-0.246
17,COc1nc2ccccc2c(=O)n1-c1ccc(Cl)cc1,-0.205
18,CCCNC(=O)c1c(N)n(Cc2ccc3c(c2)OCO3)c2nc3ccccc3nc12,-0.308
19,Cc1ccc(CNCCc2ccccc2F)cc1,1.27

row,Compound,z-score
1,CCCC(=O)c1c(O)[nH]c(=O)[nH]c1=O,-0.209
2,Cc1ccc(C(=O)Nc2ccc(-n3ccnc3P(=O)(O)c3ccccc3)cc2)cc1,0.158
3,COCC(C)OC(=O)c1c(N)n(Cc2ccco2)c2nc3ccccc3nc12 (stereo unspecified),-2.53
4,CCC(C)N1C(=O)/C(=C/c2ccc3c(c2)CCN3CCCCl)C(=O)NC1=S (stereo unspecified),-0.358
5,Cc1nn(Cc2ccccc2)c(Cl)c1C(=O)OCC(=O)Nc1cccc2ccccc12,-0.000884
6,O=C(Cc1ccccc1)N1CCN(CC2CC=CCC2)CC1 (stereo unspecified),-0.0963
7,O=C(COC(=O)c1ccccc1)Nc1ccc(Cl)cc1C(=O)c1ccccc1,-0.0641
8,Clc1cccc(C2NCCc3[nH]cnc32)c1 (stereo unspecified),-0.0875
9,Nc1c(C(=O)NC2CCCC2)c2nc3ccccc3nc2n1CC1CCCO1 (stereo unspecified),-0.689
10,CC(C(=O)c1ccccc1)N1C(=O)c2ccccc2C1=O (stereo unspecified),0.0323
11,Cc1ccc(-n2c(O)c(/C=N/N3CCCCC3c3cccnc3)c(=O)[nH]c2=S)cc1 (stereo unspecified),0.0117
12,O=C1NC(=O)N(c2ccccc2F)C(=O)/C1=C/c1ccc(Sc2nc3ccccc3[nH]2)o1,-0.375
13,CCCCn1c(O)c(C(C)=NCc2ccc(F)cc2)c(=O)[nH]c1=O,-0.366
14,CCC1CCCCN1P(=O)(c1ccc(C)o1)C(C)(C)C (stereo unspecified),-0.25
15,O=C(c1ccncc1)C12CN3CN(CN(C3)C1)C2,0.492
16,CCC(=NCc1ccco1)c1c(O)n(-c2ccc(OC)cc2)c(=O)[nH]c1=O,0.129
17,N=C1c2ccccc2CN1NC(=O)C1CC1,0.217
18,CSc1ncc(/C=C2/C(=O)NC(=O)N(c3ccc(C(C)C)cc3)C2=O)cn1,-0.222

# From PubChem BioAssay AID488969 (Vanderbilt High Throughput Screening Facility, 2010)
